{
  "source": "PubChem BioAssay AID887",
  "about": "(National Center for Advancing Translational Sciences (NCATS), 2007)",
  "note": "Among all 74,000 compounds or so, about 1,100 (1.5%) were called active. Inconclusive results, whose numbers are uncertain, are shown with a selection of clear calls. Calls come from the whole dose curve; as a rule, active = well fitted inhibition curve with a large enough effect; inconclusive = small, poorly fitted or top-dose-only effect; inactive = no such curve, though single readings can be large or run the other way. Potencies of inconclusive entries are left out as doubtful fits. % is set by controls: 0 for no effect and ±100 for the full control effect; potency is the fitted concentration of half-maximal effect; tags give direction and shape of the fitted curve.",
  "data": [
    {"biological_target": "Polyunsaturated fatty acid lipoxygenase ALOX15 (Homo sapiens) (UniProt P16050)", "sequence (P16050 whole entry, looked up)": "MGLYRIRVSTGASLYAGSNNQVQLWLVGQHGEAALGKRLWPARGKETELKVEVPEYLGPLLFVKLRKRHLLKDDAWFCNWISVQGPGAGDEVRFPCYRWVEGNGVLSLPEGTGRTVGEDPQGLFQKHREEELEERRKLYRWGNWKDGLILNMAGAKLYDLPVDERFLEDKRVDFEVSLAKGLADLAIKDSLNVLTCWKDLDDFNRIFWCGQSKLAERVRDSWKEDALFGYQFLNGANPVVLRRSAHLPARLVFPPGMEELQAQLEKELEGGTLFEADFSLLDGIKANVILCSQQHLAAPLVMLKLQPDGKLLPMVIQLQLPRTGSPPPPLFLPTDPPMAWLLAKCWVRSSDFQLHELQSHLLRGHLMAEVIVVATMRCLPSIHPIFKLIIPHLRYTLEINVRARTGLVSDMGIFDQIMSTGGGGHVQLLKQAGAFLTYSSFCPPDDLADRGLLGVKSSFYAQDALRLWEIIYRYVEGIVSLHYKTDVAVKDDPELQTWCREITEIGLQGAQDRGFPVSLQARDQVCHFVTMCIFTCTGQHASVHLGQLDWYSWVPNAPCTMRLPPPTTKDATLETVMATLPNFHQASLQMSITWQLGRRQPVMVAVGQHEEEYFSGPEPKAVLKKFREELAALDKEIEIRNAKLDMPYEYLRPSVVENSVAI", "assay": "qHTS Assay for Inhibitors of 15-hLO (15-human lipoxygenase); note: nearly all actives have a fitted effect of over 55% in size", "conditions": "purified 15hLO-1, xylenol orange hydroperoxide absorbance; activity change, negative = inhibition: at 57.1 µM (top of the series) unless noted", "procedure,_shortened": "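Compounds were preincubated 15 min at room temperature with 40 nM purified human enzyme (25 mM Hepes pH 7.5, 0.01% Triton X-100); 50 uM arachidonic acid reacted 6 min. Fe-xylenol orange detection, 30 min, absorbance ratio 573/405 nm.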", "values": [
      {"smiles": "Cc1cc(=O)cc(C)n1-c1ccccc1N1CCOCC1", "Potency": "inconclusive [inhibitor, partial curve]"},
      {"smiles": "COc1cc2c(cc1OC)C1=C(C#N)CN(CC(=O)O)CN1CC2", "Potency": "inconclusive [inhibitor, partial curve]"},
      {"smiles": "O=C(CSc1nc2ccsc2c(=O)n1NC(=O)c1ccccc1)NCc1ccco1", "Potency": "inconclusive [inhibitor, single point]"},
      {"smiles": "COc1ccc(-c2oc3cc(OC)ccc3c2C(=O)c2ccc(C#N)cc2)cc1", "Potency": "inconclusive [inhibitor, partial curve]"},
      {"smiles": "CSCCC(NC(=O)c1ccco1)C(=O)OCC(=O)Nc1sccc1C#N", "note": "(stereo not drawn)", "Potency": "inconclusive [inhibitor, partial curve]"},
      {"smiles": "O=C(OC1CCCCC1)c1ccc2c(c1)C1C=CCC1C(C(=O)O)N2", "note": "(stereo not drawn)", "Potency": "active: 25.1 µM"},
      {"smiles": "CCCCOc1ccccc1NC(=O)CC1Nc2ccccc2NC1=O", "note": "(stereo not drawn)", "Potency": "inconclusive [inhibitor, single point]"},
      {"smiles": "Nc1ccccc1NC(=O)c1ccccc1N", "activity change, negative = inhibition": "inactive: 6.11%"},
      {"smiles": "O=C(Nc1nc2ccc(Cl)cc2s1)c1ccc(Br)o1", "activity change, negative = inhibition": "inactive: -7.64% [at 11.4 µM]"},
      {"smiles": "CCOC(=O)c1c(NC(=O)CSc2n[nH]c(-c3ccco3)n2)sc(C)c1C", "Potency": "inconclusive [inhibitor, single point]"},
      {"smiles": "O=c1oc(-c2cccs2)nc2c1cnn2-c1ccccc1", "activity change, negative = inhibition": "inactive: -0.803%"},
      {"smiles": "Cc1nc2sccn2c(=O)c1CCN1CCC(=C(c2ccc(F)cc2)c2ccc(F)cc2)CC1", "Potency": "inconclusive [inhibitor, single point]"},
      {"smiles": "Cc1ccc(CO)cc1", "activity change, negative = inhibition": "inactive: -5.7%"},
      {"smiles": "Cc1ccc(O)c(N=CC2=C(O)c3ccccc3C2=O)c1", "Potency": "inconclusive [inhibitor, partial curve, poor fit]"},
      {"smiles": "CCn1c(SCC(=O)NCC2CCCO2)nc2cc(S(=O)(=O)N3CCCCC3)ccc21", "note": "(stereo not drawn)", "activity change, negative = inhibition": "inactive: 4.12%"},
      {"smiles": "CCN(CC)C(=O)C1CCN(Cc2cccc(OCc3ccccc3)c2)CC1", "Potency": "inconclusive [inhibitor, partial curve]"},
      {"smiles": "Cc1c(N/C=C/C(=O)c2cccs2)c(=O)n(-c2ccccc2)n1C", "Potency": "active: 25.1 µM"},
      {"smiles": "CN(c1ccc(Cl)cc1)c1cc(=O)n(C)c2ccccc12", "Potency": "inconclusive [inhibitor, single point]"},
      {"smiles": "COc1ccc(-c2nnc(SC(=O)N3c4ccccc4Sc4ccccc43)o2)cc1", "Potency": "active: 3.16 µM"},
      {"smiles": "N#Cc1cccc(NC(=O)NCCc2c[nH]c3ccccc23)c1", "Potency": "inconclusive [inhibitor, single point]"},
      {"smiles": "N=C1CCC[C@@H]1C(=S)SCCC(N)=O", "activity change, negative = inhibition": "inactive: -10.7% [at 11.4 µM]"},
      {"smiles": "Cc1cc(-n2c(=O)c(C#N)cc3c(=O)n4cccc(C)c4nc32)no1", "activity change, negative = inhibition": "inactive: -16.9%"},
      {"smiles": "CCc1cc(C(=O)Cc2cnn(-c3ccccc3)c2)c(O)cc1O", "Potency": "inconclusive [inhibitor, single point]"},
      {"smiles": "N#CC1=C(N)C(C#N)(C#N)[C@H](c2ccoc2)[C@H]2CN(Cc3ccccc3)CC=C12", "Potency": "inconclusive [inhibitor, partial curve]"},
      {"smiles": "O=C(Cn1cnc2c(cnn2-c2ccccc2)c1=O)N1CCCc2ccccc21", "Potency": "inconclusive [inhibitor, single point]"},
      {"smiles": "CN(C)CCCN1c2ccccc2Sc2cnccc21", "activity change, negative = inhibition": "inactive: 23.7% [at 11.4 µM]"},
      {"smiles": "O=C(O)c1cnc2ccccc2n1", "Potency": "active: 20 µM"},
      {"smiles": "Cc1ccc2[nH]c(-c3ccccc3)c(CN3CCN(C)CC3)c(=O)c2c1", "activity change, negative = inhibition": "inactive: 6.53% [at 11.4 µM]"},
      {"smiles": "O=C(NCc1ccco1)C(c1ccc(F)cc1)N(CC1CCCO1)C(=O)Cn1nnc2ccccc21", "note": "(stereo not drawn)", "activity change, negative = inhibition": "inactive: 1.12%"},
      {"smiles": "O=c1oc2ccc(Br)cc2cc1-c1nc2ccccc2o1", "activity change, negative = inhibition": "inactive: 0.79%"},
      {"smiles": "Cc1ccc(C(=O)CC2(O)C(=O)N(Cc3ccccc3Cl)c3ccccc32)o1", "note": "(stereo not drawn)", "Potency": "inconclusive [inhibitor, partial curve]"},
      {"smiles": "N#CC1=C(N)OC2=C(CCC/C2=C/c2ccoc2)C1c1ccoc1", "note": "(stereo not drawn)", "Potency": "inconclusive [inhibitor, single point]"},
      {"smiles": "COc1ccc(CNc2ncncc2-c2ccccc2C)c(OC)c1", "Potency": "inconclusive [inhibitor, partial curve]"},
      {"smiles": "Cc1n[nH]c(C)c1N1C(=O)c2cccc3c(N4CCCCCC4)ccc(c23)C1=O", "Potency": "inconclusive [inhibitor, partial curve]"},
      {"smiles": "CCCCN1CCC[C@@H]1CNC(=O)c1cc(C#N)c2ccccc2c1OC", "Potency": "inconclusive [inhibitor, partial curve, poor fit]"},
      {"smiles": "Cn1c(SCC(=O)Nc2ccc3c(c2)oc2ccccc23)nnc1-c1ccccc1", "Potency": "inconclusive [inhibitor, single point]"},
      {"smiles": "COc1cc(NC2c3ncccc3C(=O)N2Cc2ccco2)cc(OC)c1", "note": "(stereo not drawn)", "Potency": "inconclusive [inhibitor, partial curve]"},
      {"smiles": "COc1ccccc1-c1nc(NC(C)=O)n[nH]1", "Potency": "inconclusive [inhibitor, partial curve]"},
      {"smiles": "O=C(CSc1ccc(Cl)cc1)c1ccco1", "Potency": "active: 15.8 µM"},
      {"smiles": "COc1cc(C)cc2c(-c3c(O)cc(O)c4c3C[C@H](C)N[C@@H]4C)cc(-c3cc(-c4c(O)cc(O)c5c4C[C@H](C)N[C@@H]5C)c4cc(C)cc(OC)c4c3O)c(O)c12", "activity change, negative = inhibition": "inactive: -18.4% [at 11.4 µM]"},
      {"smiles": "Cc1ccc(-c2[nH]c(=O)n3ccncc23)s1", "Potency": "inconclusive [inhibitor, single point]"},
      {"smiles": "CC(O)CNC(=O)C1CCN(Cc2ccc(OCc3ccccc3)cc2)CC1", "note": "(stereo not drawn)", "Potency": "inconclusive [inhibitor, partial curve, poor fit]"},
      {"smiles": "COc1ccc(N2CCN(C(=O)Cn3nnc(-c4ccc(OC)c(OC)c4)n3)CC2)cc1", "Potency": "inconclusive [inhibitor, partial curve]"},
      {"smiles": "Cc1cccc(OCC(=O)Nc2ccc(N3CCCC3)cc2)c1C", "Potency": "inconclusive [inhibitor, partial curve]"},
      {"smiles": "O=c1cc(-c2ccc(O)c(O)c2)oc2cccc(O)c12", "Potency": "active: 0.398 µM"},
      {"smiles": "COC(=O)c1cc(Cc2ccc(N)c(C(=O)OC)c2)ccc1N", "Potency": "active: 25.1 µM"},
      {"smiles": "CCc1oc2ccccc2c1C(=O)CCN1CCCCC1", "Potency": "inconclusive [inhibitor, partial curve, poor fit]"},
      {"smiles": "O=C(CCCSc1nc(-c2ccco2)cc(C(F)(F)F)n1)NCc1cccs1", "Potency": "inconclusive [inhibitor, partial curve]"},
      {"smiles": "COc1cccc(NC(=O)Nc2cccs2)c1", "Potency": "active: 20 µM"},
      {"smiles": "CCn1c(=O)c(C(=O)NCCc2ccccc2)c(O)c2ccccc21", "Potency": "inconclusive [inhibitor, single point]"},
      {"smiles": "OC[C@@H]1O[C@@H](N2CCN([C@@H]3O[C@@H](CO)[C@@H](O)[C@H](O)[C@H]3O)CC2)[C@@H](O)[C@H](O)[C@H]1O", "activity change, negative = inhibition": "inactive: -10.4% [at 11.4 µM]"},
      {"smiles": "CCCCCc1nnc(NC(=O)C2CCCO2)s1", "note": "(stereo not drawn)", "activity change, negative = inhibition": "inactive: 0.213%"},
      {"smiles": "O=C(c1ccncc1)N1CCC2(CC1)CN(c1ccccn1)C2", "Potency": "inconclusive [inhibitor, partial curve, poor fit]"},
      {"smiles": "Cc1ccc(-n2nnc3c(=O)n(CC(=O)OCc4ccccc4)cnc32)cc1", "activity change, negative = inhibition": "inactive: -0.332%"},
      {"smiles": "NS(=O)(=O)c1ccc(Nc2nc(-c3ccc(O)cc3)cs2)cc1", "Potency": "active: 25.1 µM"},
      {"smiles": "Cc1cc(C(=O)Nc2sc3c(c2C#N)CCCC3)no1", "activity change, negative = inhibition": "inactive: -14.4%"},
      {"smiles": "CCCCCc1nnc(NC(=O)Cc2cccs2)s1", "Potency": "inconclusive [inhibitor, partial curve]"},
      {"smiles": "COc1ccc(C(=O)Nc2ccc(-c3cn4ccsc4n3)cc2)cc1S(=O)(=O)N1CCOCC1", "activity change, negative = inhibition": "inactive: -1.34%"},
      {"smiles": "O=C1c2cccc(O)c2C(=O)c2c(O)cccc21", "Potency": "inconclusive [inhibitor, single point]"},
      {"smiles": "O=c1cc(N2CCOCC2)oc2c(-c3ccccc3)cccc12", "Potency": "inconclusive [inhibitor, single point]"},
      {"smiles": "CCCN(CCC)c1ncnc2c1cnn2-c1ccc(OC)cc1", "activity change, negative = inhibition": "inactive: -2.71%"},
      {"smiles": "CCn1c(SCC(=O)Nc2nc(-c3ccc(C)cc3)cs2)nnc1-c1ccccc1O", "Potency": "inconclusive [inhibitor, partial curve]"},
      {"smiles": "CCOC(N)=O", "Potency": "inconclusive [inhibitor, single point]"},
      {"smiles": "COc1ccc2[nH]c3c(=O)n(CCCCC(=O)N4CCCC4)c(=S)[nH]c3c2c1", "Potency": "inconclusive [inhibitor, full curve]"},
      {"smiles": "Cn1cccc1C(=O)NC(=O)CSc1nc2ccccc2s1", "Potency": "inconclusive [inhibitor, partial curve]"},
      {"smiles": "COc1cccc(-c2cc(NCc3cnc(C)cn3)ncn2)c1", "Potency": "inconclusive [inhibitor, single point]"},
      {"smiles": "Cc1ccc(-n2nnnc2SCC(=O)NCCC2=CCCCC2)c(C)c1", "Potency": "active: 31.6 µM"},
      {"smiles": "COc1cccc2c(=O)n(CC(=O)N3CCCc4ccccc43)ccc12", "activity change, negative = inhibition": "inactive: -5.75%"},
      {"smiles": "CCN(CC)S(=O)(=O)c1ccc(C(=O)OCC(=O)N2CCN(C(=O)c3ccco3)CC2)cc1", "Potency": "inconclusive [inhibitor, full curve]"},
      {"smiles": "CCN(CC)S(=O)(=O)c1cc(C(=O)Nc2nncs2)c(Cl)cc1Cl", "activity change, negative = inhibition": "inactive: -7.09%"},
      {"smiles": "CCCCCCSC1=C(C#N)C(c2ccc(O)cc2)CC(=O)N1", "note": "(stereo not drawn)", "Potency": "active: 20 µM"},
      {"smiles": "O=C(CN1CCN(C2CCCCC2)CC1)c1ccc2cc[nH]c2c1", "activity change, negative = inhibition": "inactive: -6.98%"},
      {"smiles": "CC(=O)OC1CC(O)C(C)(C)C2CC(OC(C)=O)[C@]3(C)C(CC[C@@]4(C)C(c5ccoc5)OC(=O)C5OC534)[C@]12C", "note": "(stereo partly drawn)", "activity change, negative = inhibition": "inactive: 0.436%"}
    ]}
  ]
}
